A collection of fitness landscapes (doi:10.1126/science.1257360)
Some of the results follow.

B1: PhoQ; a variant is named by its letters at X, in order, P23837 (parent)
chain: MKKLLRLFFPLSLRVRFLLATAAVVLVLSLAYGMVALIGYSVSFDKTTFRLLRGESNLFYTLAKWENNKLHVELPENIDKQSPTMTLIYDENGQLLWAQRDVPWLMKMIQPDWLKSNGFHEIEADVNDTSLLLSGDHSIQQQLQEVREDDDDAEMTHSVAVNVYPATSRMPKLTIVVVDTIPVELKSSYMVWSWFIYVLSANLLLVIPLLWVAAWWSLRPIEALAKEVRELEEHNRELLNPATTRELTSLVRNLNRLLKSERERYDKYRTTLTDLTHSLKTPLXXLQXXLRSLRSEKMSVSDAEPVMLEQISRISQQIGYYLHRASMRGGTLLSRELHPVAPLLDNLTSALNKVYQRKGVNISLDISPEISFVGEQNDFVEVMGNVLDNACKYCLEFVEISARQTDEHLYIVVEDDGPGIPLSKREVIFDRGQRVDTLRPGQGVGLAVAREITEQYEGKIVAGESMLGGARMEVIFGRQHSAPKDE

Variants of: B1
Assay: enrichment ratio after two sorts for PhoP signalling (ratio (wild type AVST 3.29)); higher = more functional
Conditions: with PhoP (E. coli)
VFIE was tested, and the enrichment ratio was ≤ 0.25. With HLIM the enrichment ratio was ≤ 0.25. WTHH was tested, and the enrichment ratio was ≤ 0.25. In the case of GFFD, the enrichment ratio is reported as ≤ 0.25. With HIGW the enrichment ratio was ≤ 0.25. RNAS was tested, and the enrichment ratio was ≤ 0.25. QMHI was tested, and the enrichment ratio was ≤ 0.25. In the case of QLLV, the enrichment ratio is reported as ≤ 0.25. LGNG was tested, and the enrichment ratio was ≤ 0.25. With MWLL the enrichment ratio was ≤ 0.25. ERTA was tested, and the enrichment ratio was ≤ 0.25. Work on FCLI yielded an enrichment ratio of 7.58. With RTQG the enrichment ratio was ≤ 0.25. With QRDH the enrichment ratio was ≤ 0.25. With GLAW the enrichment ratio was ≤ 0.25. NSPW was tested, and the enrichment ratio was ≤ 0.25. With AWMK the enrichment ratio was ≤ 0.25. In the case of FGAS, the enrichment ratio is reported as ≤ 0.25. With KFFF the enrichment ratio was ≤ 0.25. In the case of DCCM, the enrichment ratio is reported as ≤ 0.25. For GRGY, the enrichment ratio was ≤ 0.25. ITWL was tested, and the enrichment ratio was ≤ 0.25. For YTYR, the enrichment ratio was ≤ 0.25. With AFHP the enrichment ratio was ≤ 0.25. For KHLA, the enrichment ratio was ≤ 0.25. For KSYM, the enrichment ratio was ≤ 0.25. SMMT gave an enrichment ratio of 5.23. With LAIR the enrichment ratio was ≤ 0.25. In the case of NSSC, the enrichment ratio is reported as ≤ 0.25. For HHET, the enrichment ratio was ≤ 0.25. In the case of KSYK, the enrichment ratio is reported as ≤ 0.25. For RWCC, the enrichment ratio was ≤ 0.25. With KKRT the enrichment ratio was ≤ 0.25. With PIPV the enrichment ratio was ≤ 0.25. For RKSM, the enrichment ratio was ≤ 0.25. MCAM gave an enrichment ratio of 12.2. KNGD was tested, and the enrichment ratio was ≤ 0.25. For FMST, the enrichment ratio was ≤ 0.25. NPRR was tested, and the enrichment ratio was ≤ 0.25. HGIK was tested, and the enrichment ratio was ≤ 0.25. WRMS was tested, and the enrichment ratio was ≤ 0.25. In the case of DRWV, the enrichment ratio is reported as ≤ 0.25. For RPGF, the enrichment ratio was ≤ 0.25. SGYT was tested, and the enrichment ratio was ≤ 0.25. SPCC was tested, and the enrichment ratio was ≤ 0.25. Variant TKCA has an enrichment ratio of 1.64. VIHN was tested, and the enrichment ratio was ≤ 0.25. For DLVA, the enrichment ratio was ≤ 0.25. MQDT was tested, and the enrichment ratio was ≤ 0.25. For SHID, the enrichment ratio was ≤ 0.25. Variant GEIL has an enrichment ratio of 3.53. With HSYD the enrichment ratio was ≤ 0.25. With LQHD the enrichment ratio was ≤ 0.25. For MMGA, the enrichment ratio was ≤ 0.25. In the case of IEQS, the enrichment ratio is reported as ≤ 0.25. For WPYS, the enrichment ratio was ≤ 0.25. HRRQ was tested, and the enrichment ratio was ≤ 0.25. For GKNK, the enrichment ratio was ≤ 0.25. For MIMW, the enrichment ratio was ≤ 0.25. With GSCC the enrichment ratio was 8.33. SRPV was tested, and the enrichment ratio was ≤ 0.25. For PKSF, the enrichment ratio was ≤ 0.25. With IYAK the enrichment ratio was ≤ 0.25. Work on GSSG yielded an enrichment ratio of 0.346. In the case of KDKG, the enrichment ratio is reported as ≤ 0.25. FLML gave an enrichment ratio of 0.929. ITSI was tested, and the enrichment ratio was ≤ 0.25. In the case of ICFF, the enrichment ratio is reported as ≤ 0.25. With KSTE the enrichment ratio was ≤ 0.25. WMFS was tested, and the enrichment ratio was ≤ 0.25. For PDMF, the enrichment ratio was ≤ 0.25. NQTS was tested, and the enrichment ratio was ≤ 0.25. MAHL gave an enrichment ratio of 7.58. LTVF was tested, and the enrichment ratio was ≤ 0.25. For MNTQ, the enrichment ratio was ≤ 0.25. With KAGN the enrichment ratio was ≤ 0.25. KRVG was tested, and the enrichment ratio was ≤ 0.25. With DLLN the enrichment ratio was ≤ 0.25. Work on NEST yielded an enrichment ratio of 3.45. With PAPL the enrichment ratio was ≤ 0.25. With ISFT the enrichment ratio was ≤ 0.25. With VIIV the enrichment ratio was ≤ 0.25. For LVRS, the enrichment ratio was ≤ 0.25. With KHHI the enrichment ratio was ≤ 0.25. For TKNE, the enrichment ratio was ≤ 0.25. In the case of QRFI, the enrichment ratio is reported as ≤ 0.25. With VNGS the enrichment ratio was ≤ 0.25. In the case of RPYG, the enrichment ratio is reported as ≤ 0.25. With KDPE the enrichment ratio was ≤ 0.25. In the case of TMHR, the enrichment ratio is reported as ≤ 0.25. With LCPP the enrichment ratio was ≤ 0.25. With WAYG the enrichment ratio was ≤ 0.25. For ESDL, the enrichment ratio was ≤ 0.25. In the case of PSFY, the enrichment ratio is reported as ≤ 0.25. Work on AVSS yielded an enrichment ratio of 7.83. In the case of KIEQ, the enrichment ratio is reported as ≤ 0.25. DIDF was tested, and the enrichment ratio was ≤ 0.25. FRGV was tested, and the enrichment ratio was ≤ 0.25. HNFA was tested, and the enrichment ratio was ≤ 0.25. VEFR was tested, and the enrichment ratio was ≤ 0.25. For AQVS, the enrichment ratio was 14. FFQA was tested, and the enrichment ratio was ≤ 0.25. For NVSV, the enrichment ratio was ≤ 0.25. In the case of TELG, the enrichment ratio is reported as 27.4. QELC was tested, and the enrichment ratio was ≤ 0.25. For TWEH, the enrichment ratio was ≤ 0.25. In the case of YPPI, the enrichment ratio is reported as ≤ 0.25. With KSEV the enrichment ratio was ≤ 0.25. In the case of TKVK, the enrichment ratio is reported as ≤ 0.25. For PCYI, the enrichment ratio was ≤ 0.25. With ETIP the enrichment ratio was ≤ 0.25. For HIDS, the enrichment ratio was ≤ 0.25. MLDH was tested, and the enrichment ratio was ≤ 0.25. With VIVL the enrichment ratio was ≤ 0.25. With NGHL the enrichment ratio was ≤ 0.25. For GHSY, the enrichment ratio was ≤ 0.25. For FHTG, the enrichment ratio was ≤ 0.25. With ETPS the enrichment ratio was ≤ 0.25. For WELS, the enrichment ratio was ≤ 0.25. With YDMW the enrichment ratio was ≤ 0.25. LQVI was tested, and the enrichment ratio was ≤ 0.25. With HPHN the enrichment ratio was ≤ 0.25. TCCN gave an enrichment ratio of 17.6. For DHSA, the enrichment ratio was ≤ 0.25. YNCT was tested, and the enrichment ratio was ≤ 0.25. For QHAI, the enrichment ratio was ≤ 0.25. PWNF was tested, and the enrichment ratio was ≤ 0.25. In the case of RIKN, the enrichment ratio is reported as ≤ 0.25. In the case of FCEL, the enrichment ratio is reported as ≤ 0.25. For KTHT, the enrichment ratio was ≤ 0.25. For DYLC, the enrichment ratio was ≤ 0.25. With DFCK the enrichment ratio was ≤ 0.25. With DDCY the enrichment ratio was ≤ 0.25. KSPW was tested, and the enrichment ratio was ≤ 0.25. For YFRP, the enrichment ratio was ≤ 0.25. In the case of LGRS, the enrichment ratio is reported as ≤ 0.25. YFFS was tested, and the enrichment ratio was ≤ 0.25. In the case of YRFV, the enrichment ratio is reported as ≤ 0.25. TWCY was tested, and the enrichment ratio was ≤ 0.25. In the case of QLLI, the enrichment ratio is reported as ≤ 0.25. For SVRI, the enrichment ratio was ≤ 0.25. With KQMY the enrichment ratio was ≤ 0.25. In the case of QYRG, the enrichment ratio is reported as ≤ 0.25. In the case of GIDI, the enrichment ratio is reported as ≤ 0.25. RFVA was tested, and the enrichment ratio was ≤ 0.25. LRVH was tested, and the enrichment ratio was ≤ 0.25. SYLD was tested, and the enrichment ratio was ≤ 0.25. For KASD, the enrichment ratio was ≤ 0.25. HPSP was tested, and the enrichment ratio was ≤ 0.25. With LWWP the enrichment ratio was ≤ 0.25. In the case of YPLQ, the enrichment ratio is reported as ≤ 0.25. With YPSD the enrichment ratio was ≤ 0.25. For WRFY, the enrichment ratio was ≤ 0.25. ACSI gave an enrichment ratio of 9.58. HWVE was tested, and the enrichment ratio was ≤ 0.25. HNPI was tested, and the enrichment ratio was ≤ 0.25. In the case of PVIT, the enrichment ratio is reported as ≤ 0.25. RSNN was tested, and the enrichment ratio was ≤ 0.25. With LSGF the enrichment ratio was ≤ 0.25. In the case of WIMP, the enrichment ratio is reported as ≤ 0.25. With AHEG the enrichment ratio was ≤ 0.25. With TIMF the enrichment ratio was ≤ 0.25. For EKGI, the enrichment ratio was ≤ 0.25. For EMSR, the enrichment ratio was ≤ 0.25. In the case of SSQA, the enrichment ratio is reported as 0.476. NDVP was tested, and the enrichment ratio was ≤ 0.25. For AMKW, the enrichment ratio was ≤ 0.25. EMFY was tested, and the enrichment ratio was ≤ 0.25. With MTTA the enrichment ratio was ≤ 0.25. With ITWM the enrichment ratio was ≤ 0.25. In the case of WGWN, the enrichment ratio is reported as ≤ 0.25. For AINF, the enrichment ratio was 1.66. RRWM was tested, and the enrichment ratio was ≤ 0.25. With KSFV the enrichment ratio was ≤ 0.25. With FNDN the enrichment ratio was ≤ 0.25. In the case of QFSW, the enrichment ratio is reported as ≤ 0.25. For RPIR, the enrichment ratio was ≤ 0.25. With DKGI the enrichment ratio was ≤ 0.25. With QHKI the enrichment ratio was ≤ 0.25. Work on MPDE yielded an enrichment ratio of 1.25. With EKMM the enrichment ratio was ≤ 0.25. With SHAR the enrichment ratio was ≤ 0.25. GFNG was tested, and the enrichment ratio was ≤ 0.25. In the case of NHRN, the enrichment ratio is reported as ≤ 0.25. In the case of HNFG, the enrichment ratio is reported as ≤ 0.25. DINC was tested, and the enrichment ratio was ≤ 0.25. For QSIY, the enrichment ratio was ≤ 0.25. RNSD was tested, and the enrichment ratio was ≤ 0.25. For ATDH, the enrichment ratio was ≤ 0.25. In the case of MSRY, the enrichment ratio is reported as ≤ 0.25. With MTCQ the enrichment ratio was ≤ 0.25. For RRFT, the enrichment ratio was ≤ 0.25. FLKW was tested, and the enrichment ratio was ≤ 0.25. With YFRS the enrichment ratio was ≤ 0.25. With VKPL the enrichment ratio was ≤ 0.25.
